# Results from the RNAGym collection of RNA variant scans (doi:10.7554/elife.90254).
# Read counts are not given, so values of variants with three or more changes are uncertain.
# B1: LINE1-mini (parent)
# chain: GGCAGAGCUCAACACAGCGUGGCAAAGUGGCUGUGGCUAGACUGCC
# Variants of: B1
# Assay: self-cleavage, relative activity (ratio to wild type); higher = more cleavage; in vitro, sequencing; the parent is a self-cleaving ribozyme
row,Variant,self-cleavage
1,G17C G21A G36A C42G,0.07
2,G17C U20C A24G C46A,0.05
3,G17C U34C C37U G44U C45A,0.06
4,G17A U20C A26C G40U,0.02
5,A16U G21U U28G,0.04
6,G17A U20A C31A G33C,0.22
7,G17C U32A C37A,0
8,A16U G19A G22U G29C C31G G35U,0.01
9,G17C G19U C37U G44U,0.18
10,A16U U28A G30U C31G,0.02
11,G17A G29C C46A,0.03
12,G17C C42A G44U,0.04
13,A16U G27C G29U C31A,0.4
14,G17C G19C U43C,0.02
15,G17A G21C G29U,0.09
16,G17C G19A G21C G33A,0.11
17,G17C A25U U34A C46A,0.02
18,G17C C23A A24U,2.67
19,G17C G30C C45G,0.04
20,G17C C37A C42G,0.02
21,A16U G21U G36A C46G,0.08
22,G17C G30C G35A,0.02
23,G17A C18G G44C,0.03
24,A16U G22C A41C,0.03

row,Variant,self-cleavage
1,G17C G27U G29A,0.41
2,G17A G35U G40A,0.14
3,G17A U20C C37U G40U,0.09
4,G17C U38C A41U,0.09
5,G17C U28C U34C,0.02
6,G17C G29C G35C C42U,0.01
7,G17C G22C C42U C46U,0.02
8,G17A C23A A24C U34C G36A,0.03
9,G17A A26U A39U,0.02
10,G17A G33U C37U,0.04
11,G17C A25C G36A C45A,0.03
12,G17A A26C A41C,0.01
13,G17A U34A C37G G40U,0
14,G17A G22C A25C G27C G33C U38G A39C,0.01
15,G17C G21A G29C,1.33
16,G17A C18A U28A,0.01
17,G17C A24U U32A G35U,0.15
18,G17C C31U C45U,0.09
19,A16U G36A C46U,0.08
20,G17A G22U C45U,0.18
21,G17A G40C U43C,0.01
22,G17A C31G U38C,0.1
23,A16U U34C G44C,0.15
24,A16U G27C G30C,0.55

row,Variant,self-cleavage
1,G17C G36A A41U C45U,0.09
2,A16U G19C G36A,0.1
3,G17C U34G C37A C42U,0.01
4,G17A C18A G27C G30C C37U,0.02
5,G17A G21U A26U G40C C45G,0.07
6,G17C G29A G36U,0.05
7,G17C G29A G36C,0.03
8,G17C G33A U34G,0.01
9,A16U U34A A41G,0.01
10,G17A G21A G29A,0.62
11,G17A C31U G40U C45A,0.02
12,G17A G19C U20A G27A G40C,0.06
13,A16U G29A U38A A41C C42U,0.03
14,A16U G29C C31U C37U G44U,0.04
15,A16U U20C A26U A39U,0.35
16,G17A U20G C23U,0.07
17,G17C C31A G35A,0.02
18,G17C U20G A26U,1.46
19,G17C A25G G29U,0.04
20,G17A A25G U38G,0.01
21,A16U G22C A26U C37U,0.32
22,A16U G30A U34G,0.1
23,G17A C23G G35C A41C,0.11
24,G17A G22C G36C,0.06

row,Variant,self-cleavage
1,G17A G19U G30A G35A G36C C45A C46G,0
2,G17A U28G U34A,0.05
3,A16U G22A U38C A41U,0.1
4,G17A C18U G29C U32G C42G,0.06
5,G17C G19U A26C G27U C42U,0.05
6,A16U G35U G36U,0.14
7,G17C C18A G27A C45U,0.09
8,G17C G19U A24U,0.02
9,G17C G19A A24C,0.03
10,G17C C23G U32C,0.01
11,G17A G22A A39U,0.11
12,G17C G21A A25G C37A,0.39
13,G17C C23G G35A,0.06
14,G17C A24G G33C,0.06
15,G17C G19C A25G,0.58
16,G17C A24G G27A U28C,0.59
17,G17A G21U U38C,0.07
18,G17A U28C G40U,0.11
19,G17C G22A G36A,0.07
20,G17C G27C A39U,0.51
21,G17A A25U U43C,0.01
22,A16U G30A C45A,0.25
23,G17U A24G G30A,1.33
24,A16U G19C C46A,0.2

row,Variant,self-cleavage
1,G17A A24G A39G,0.01
2,G17C G33U G40A U43G,0
3,G17A G36A A39U,0.02
4,G17A G30C U34A,0.1
5,G17A G19A G22C,0.25
6,G17C A24C U38C,0.24
7,G17A A26U G27C G36C,0.07
8,G17A U34C C37U,0.04
9,A16U G27U G30C A39U C46U,1.12
10,A16U U32G G35U,0.06
11,G17A C31A C42U,0.06
12,A16U U20C G33A,0
13,G17A A25G C45G,0.02
14,G17C A24U U28G G33A G35U A41C,0.07
15,G17C A25G A26C,0.4
16,A16U G19A G21U G29C G30U G33U U43C,0.01
17,G17A G30U G44U,0.02
18,G17A G27C G33U G35C A39C C46A,0.13
19,A16U G36C U43A,0.05
20,G17C C23A C31U C42U C46G,0.01
21,G17A U20A G22A A26G G33U,0.03
22,A16U U34A U38C,0.01
23,G17A G21U C31U G40A C45G,0.05
24,G17C C31U G33A G36A,0.1

row,Variant,self-cleavage
1,G17A G22A A39C G40U C46U,0.02
2,G17C G27A C42A,0.07
3,G17A G40U A41U,0.06
4,G17A G19A A24C C37U A41C,0.01
5,G17C G22U C31A U38A G44A,0.04
6,G17A C37U A41C,0.05
7,G17A G27C U34G A41U,0.05
8,G17C G19U C46A,0.15
9,A16U G21C U34A,0.02
10,G17U A24G G33U,0.04
11,G17C G19A C37G,0.03
12,G17C A26C U32A C45A,0.05
13,G17C G22C G33C,0.04
14,G17A C31U G40U,0.03
15,A16U U20A G21C A25G G40A,0.01
16,A16U G22U G29U,0.26
17,G17C A24C C37U G40U U43A G44A,0
18,G17C U43C C45U,0
19,A16U G27A G33U,0.02
20,G17A G21A U43G,0.02
21,G17C C31G G33A G40U,0
22,G17A G35A C42A,0.01
23,A16U G19U G22A,0.2
24,G17A C18A G35C U38G,0.02

row,Variant,self-cleavage
1,G17C C23A G29U U43A,0.02
2,G17A U34A A39G G44C,0.03
3,G17A A39G G40U,0.01
4,A16U U20C G21A A25G G29C U32A U38G C45A C46U,0
5,G17A U20A C23U,0.06
6,G17C C23G A41C,0.02
7,A16U G19A G36U,0.08
8,G17A G22U G27C G44A,0.14
9,G17C G22A G35C G40C C46A,0.1
10,G17A G29U C37A,0.03
11,G17C G19U A26G G33A U34G,0
12,A16U G30U G40U,0.01
13,G17A U34G C37U,0.07
14,A16U U28C G29U,0.41
15,G17C G22U G30U C37G,0.02
16,G17C C31U A39U,0.02
17,G17A G27U U32A,0.11
18,G17C G21A G27A,1.09
19,G17A G21C A26U U38A,0.06
20,G17A G21U G36C,0.04
21,G17A G22U G27U G35U,0.25
22,G17C G21C A24G C46U,0.14
23,G17C G19U G36U C37A,0.12
